{"source": "paper PMC8710044", "key": {"[1]": {"substrate": "O=C(O)COC(=O)Cc1ccccc1Nc1c(Cl)cccc1Cl", "assay": "Steady-state kinetics of overall NSAID metabolism", "assay_type": "in vitro ADME, human", "conditions": "other: overall metabolism (depletion) by CYP3A4; 95% CI in parentheses; pH 7.4"}, "[2]": {"substrate": "Cc1cccc(Nc2ccccc2C(=O)O)c1C", "assay": "Steady-state kinetics of overall NSAID metabolism", "assay_type": "in vitro ADME, human", "conditions": "other: overall metabolism (depletion) by CYP3A4; 95% CI in parentheses; pH 7.4"}, "[3]": {"substrate": "O=C(O)c1ccccc1Nc1cccc(C(F)(F)F)c1", "assay": "Steady-state kinetics of overall NSAID metabolism", "assay_type": "in vitro ADME, human", "conditions": "other: overall metabolism (depletion) by CYP3A4; 95% CI in parentheses; pH 7.4"}, "[4]": {"substrate": "Cc1ccc(Nc2c(F)cccc2Cl)c(CC(=O)O)c1", "assay": "cells, lysate or membranes named", "conditions": "95% CI in parentheses, pH 7.4"}, "[5]": {"substrate": "Cc1c(Cl)cccc1Nc1ccccc1C(=O)O", "assay": "cells, lysate or membranes named", "conditions": "95% CI in parentheses, pH 7.4"}, "[6]": {"substrate": "Cc1ccc(Cl)c(Nc2ccccc2C(=O)O)c1Cl", "assay": "cells, lysate or membranes named", "conditions": "95% CI in parentheses, pH 7.4"}, "[7]": {"substrate": "O=C(O)COC(=O)Cc1ccccc1Nc1c(Cl)cccc1Cl", "assay": "Steady-state bioactivation kinetics", "assay_type": "in vitro ADME, human", "conditions": "other: CYP3A4; metabolite M6, path 3; 95% CI in parentheses; pH 7.4"}, "[8]": {"substrate": "Cc1cccc(Nc2ccccc2C(=O)O)c1C", "assay": "Steady-state bioactivation kinetics", "assay_type": "in vitro ADME, human", "conditions": "other: CYP3A4, path 1, 2, 95% CI in parentheses, pH 7.4"}, "[9]": {"substrate": "O=C(O)c1ccccc1Nc1cccc(C(F)(F)F)c1", "assay": "Steady-state bioactivation kinetics", "assay_type": "in vitro ADME, human", "conditions": "other: CYP3A4; metabolite M2/M4, path 1, 2; 95% CI in parentheses; pH 7.4"}, "[10]": {"conditions": "other: CYP3A4, metabolite M6a, path 3"}, "[11]": {"conditions": "other: overall metabolism (depletion) by CYP3A4"}, "[12]": {"conditions": "other: CYP3A4, metabolite M2/M4a, path 1, 2"}, "[13]": {"conditions": "other: CYP3A4, metabolite M2/M4b, path 1, 2"}, "[14]": {"conditions": "other: CYP3A4, metabolite M6, path 3"}}}
{"protein": "CYP3A4 (Homo sapiens) (protein) MALIPDLAMETWLLLAVSLVLLYLYGTHSHGLFKKLGIPGPTPLPFLGNILSYHKGFCMFDMECHKKYGKVWGFYDGQQPVLAITDPDMIKTVLVKECYSVFTNRRPFGPVGFMKSAISIAEDEEWKRLRSLLSPTFTSGKLKEMVPIIAQYGDVLVRNLRREAETGKPVTLKDVFGAYSMDVITSTSFGVNIDSLNNPQDPFVENTKKLLRFDFLDPFFLSITVFPFLIPILEVLNICVFPREVTNFLRKSVKRMKESRLEDTQKHRVDFLQLMIDSQNSKETESHKALSDLELVAQSIIFIFAGYETTSSVLSFIMYELATHPDVQQKLQEEIDAVLPNKAPPTYDTVLQMEYLDMVVNETLRLFPIAMRLERVCKKDVEINGMFIPKGVVVMIPSYALHRDPKYWTEPEKFLPERFSKKNKDNIDPYIYTPFGSGPRNCIGMRFALMNMKLALIRVLQNFSFKPCKETQIPLKLSLGGLLQPEKPVVLKVESRDGTVSGA", "values": [{"measurement": "Km", "setting": "[1]", "value": "260 (210–320) μM"}, {"measurement": "kcat", "setting": "[1]", "value": "7720 (7000–8610) pmol/min/nmol protein"}, {"measurement": "Km", "setting": "[2]", "value": "89.7 (73–110) μM"}, {"measurement": "kcat", "setting": "[2]", "value": "3930 (3650–4250) pmol/min/nmol protein"}, {"measurement": "Km", "setting": "[3]", "value": "150 (130–170) μM"}, {"measurement": "kcat", "setting": "[3]", "value": "6120 (5770–6520) pmol/min/nmol protein"}, {"measurement": "Km", "setting": "[4]; [10]", "value": "35.5 (31.4–40.2) μM"}, {"measurement": "kcat", "setting": "[4]; [10]", "value": "5.2 (5.1–5.4) pmol/min/nmol protein"}, {"measurement": "Km", "setting": "[4]; [11]", "value": "140 (110–170) μM"}, {"measurement": "kcat", "setting": "[4]; [11]", "value": "4440 (4060–4910) pmol/min/nmol protein"}, {"measurement": "Km", "setting": "[5]; [12]", "value": "11.9 (8.6–16.2) μM"}, {"measurement": "kcat", "setting": "[5]; [12]", "value": "4.3 (4.1–4.5) pmol/min/nmol protein"}, {"measurement": "Km", "setting": "[5]; [13]", "value": "28.7 (24.2–34.0) μM"}, {"measurement": "kcat", "setting": "[5]; [13]", "value": "20.0 (19.2–20.9) pmol/min/nmol protein"}, {"measurement": "Km", "setting": "[5]; [11]", "value": "170 (140–210) μM"}, {"measurement": "kcat", "setting": "[5]; [11]", "value": "6340 (5840–6910) pmol/min/nmol protein"}, {"measurement": "Km", "setting": "[6]; [14]", "value": "76.8 (63.5–92.8) μM"}, {"measurement": "kcat", "setting": "[6]; [14]", "value": "49.8 (46.8–53.2) pmol/min/nmol protein"}, {"measurement": "Km", "setting": "[6]; [11]", "value": "260 (210–340) μM"}, {"measurement": "kcat", "setting": "[6]; [11]", "value": "10700 (9550–12200) pmol/min/nmol protein"}, {"measurement": "Km", "setting": "[7]", "value": "90.5 (75.5–108.5) μM"}, {"measurement": "kcat", "setting": "[7]", "value": "9.9 (9.3–10.6) pmol/min/nmol protein"}, {"measurement": "Km", "setting": "[8]; metabolite M2/M4a", "value": "91.3 (79.5–104.9) μM"}, {"measurement": "kcat", "setting": "[8]; metabolite M2/M4a", "value": "6.7 (6.4–7.1) pmol/min/nmol protein"}, {"measurement": "Km", "setting": "[8]; metabolite M2/M4b", "value": "37.9 (32.1–44.6) μM"}, {"measurement": "kcat", "setting": "[8]; metabolite M2/M4b", "value": "4.1 (3.9–4.2) pmol/min/nmol protein"}, {"measurement": "Km", "setting": "[9]", "value": "38.8 (29.7–50.0) μM"}, {"measurement": "kcat", "setting": "[9]", "value": "40.3 (37.6–43.3) pmol/min/nmol protein"}]}
